The values below come from paper PMC6212790.

Some of the results follow. At the low end of the ranking the order means little.

The target in the assay is T1, GST-Rok (full length) (UniProt O34857).
T1 sequence: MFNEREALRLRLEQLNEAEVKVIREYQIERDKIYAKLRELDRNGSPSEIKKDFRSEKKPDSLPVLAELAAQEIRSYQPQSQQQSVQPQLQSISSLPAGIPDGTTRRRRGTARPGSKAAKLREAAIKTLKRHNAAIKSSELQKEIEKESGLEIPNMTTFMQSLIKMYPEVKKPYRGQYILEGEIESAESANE
The assay can be described thus: protein binding microarray.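 Note: rank score from −0.5 (least bound) to 0.5 (best bound).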 Particulars: Rok is a gene silencer of Bacillus subtilis; high values mean tight binding; most listed sequences are background and not binding sites; double strand, one strand shown.
Turning to ATTCCAGG, the binding signal was -0.062 E-score.
Under GATGTGCC stands -0.185 E-score.
Under CTCACACA stands 0.0158 E-score; under AAGGTAGA, 0.288 E-score; under CAACACAC, 0.0692 E-score.
Under GACCCGAC stands -0.277 E-score; under AGTGGTCG, -0.261 E-score.
ACCAAGCC had a binding signal of -0.214 E-score.
Under ATTCATCG stands 0.0733 E-score; under AATTGTGT, 0.149 E-score.
Sequence ACTTGTCG had a binding signal of -0.143 E-score.
Under AGATTACC stands -0.0495 E-score; under CCCACAAC, -0.247 E-score.
The sequence GAGTCTTA returned a binding signal of -0.0393 E-score.
In turn, GATACTCA displayed a binding signal of 0.00419 E-score.
Under GTCGTACA stands 0.183 E-score; under CTTCCGAA, -0.0894 E-score.
For GTGGACCA, the binding signal was -0.217 E-score.
As for GGCATAGA, the figure is -0.0865 E-score.
CTGTAATC registered a binding signal of 0.0182 E-score.
As for CACGTCCG, the figure is -0.302 E-score; as for CGACAGCC, 0.0764 E-score; as for ACTATCTG, 0.134 E-score.
As for CCTTGGGC, the figure is -0.228 E-score; as for AGCTGGTC, -0.13 E-score.
With ATCCTAGA, the binding signal was -0.0904 E-score.
Under AACAGGTG stands -0.0105 E-score; under CGAAGACA, -0.193 E-score; under ACCGCGGA, -0.0679 E-score.
Under GACTTCTA stands 0.0634 E-score; under AGTTGCGA, 0.0582 E-score; under TCCGAACA, 0.0572 E-score.
Take AAAGTACT: the binding signal was 0.221 E-score.
Under ACTTGTCC stands -0.0505 E-score; under CGGCACAA, -0.145 E-score; under GTTCTCTA, 0.24 E-score.
On to ATCTGCTC, for which the binding signal was -0.0644 E-score.
In turn, GCCGATCC displayed a binding signal of -0.224 E-score.
Under ACTGAGGA stands -0.171 E-score.
Turning to ACTTGCTA, the binding signal turned out to be 0.157 E-score.
Under GCAAGGAA stands -0.153 E-score.
On to CCTGTCGA, for which the binding signal is -0.105 E-score.
Under CCCCATCG stands -0.157 E-score; under GGCTTACA, -0.132 E-score.
TAGCATCA showed a binding signal of -0.0631 E-score.
ACTCCAAC had a binding signal of -0.233 E-score.
On to ACATGAGT, for which the binding signal was determined as 0.0857 E-score.
Sequence TACAGGCA showed a binding signal of -0.087 E-score.
As for AACTTCAT, the figure is 0.0811 E-score; as for AAAAAGTT, 0.0934 E-score; as for GACCATCA, -0.255 E-score.
Under CCTTTCAC stands -0.101 E-score; under AGTATCCA, -0.00362 E-score.
Regarding CCAATTAG, the binding signal was -0.0847 E-score.
AGAATTAG: the binding signal stood at 0.254 E-score.
As for CAGTGGTC, the figure is -0.278 E-score.
Under ACGCGGAA stands -0.000711 E-score; under AGGCATAG, -0.0501 E-score; under CGTCTAGC, -0.127 E-score.
As for GCGGTACC, the figure is -0.115 E-score; as for ATGCGGGA, -0.179 E-score.
On to AACTCATC, for which the binding signal was -0.0758 E-score.
Take CTACGAGC: the binding signal was -0.192 E-score.
As for TAAACAAA, the figure is 0.0173 E-score; as for ACTGATAG, 0.102 E-score.
As for AAGCGCCG, the figure is -0.211 E-score; as for AATTTTTA, 0.107 E-score.
Under CCTTCGTA stands -0.212 E-score; under GGATCATA, 0.0856 E-score; under GTCGTCTA, -0.0289 E-score.
Take AAGAAATC: the binding signal came to 0.0862 E-score.
In the case of CATATGGA, the binding signal was -0.0847 E-score.
For the sequence ATGGGCTC, the binding signal is -0.191 E-score.
Under TAACATGA stands 0.22 E-score; under AGTTCCCC, -0.173 E-score; under CACTTGTC, -0.0559 E-score.
As for CCACATAA, the figure is 0.108 E-score; as for GGAGCGCC, -0.341 E-score.
On to ATGATGTC, for which the binding signal is -0.19 E-score.
As for AAGCTGGT, the figure is -0.0627 E-score.
CTGGTGAA registered a binding signal of -0.118 E-score.
Sequence AGTGCGTC yielded a binding signal of 0.0828 E-score.
Regarding CAGTTTGA, the binding signal is -0.0929 E-score.
Under TAGCACCA stands -0.0603 E-score; under TACTCTGA, -0.0307 E-score; under GCGGGAGA, -0.329 E-score.
As for CCACCGAA, the figure is -0.0512 E-score.
As for ACTGGACG, the figure is 0.057 E-score; as for CGCTGGCA, -0.119 E-score; as for AGCTGGTA, 0.223 E-score.
Sequence CCTTACAA returned a binding signal of 0.0477 E-score.
Under GATTTGGA stands 0.0296 E-score; under CCTGGCAG, -0.232 E-score; under AGTTTTTA, 0.131 E-score.
Under ATCAGTTC stands 0.12 E-score.
The sequence GTATCTAA came in with a binding signal of 0.285 E-score.
ATGTGAGG: the binding signal is -0.143 E-score.
In the case of AAGGGGGC, the binding signal was -0.327 E-score.
As for ACAGTATG, the figure is 0.101 E-score; as for ACAATTAT, 0.294 E-score.
Under AGTCTCGG stands -0.0699 E-score; under ACAACTAT, 0.33 E-score; under AGTTTCAG, 0.0509 E-score.
GCTGCCAA gave a binding signal of -0.067 E-score.
Under CTAGAACC stands 0.0686 E-score; under AGACGACA, -0.192 E-score; under CAGGAGGC, -0.387 E-score.
Sequence AGATTTCA returned a binding signal of 0.0391 E-score.
Under ATGGCGTG stands -0.208 E-score; under AAACGGTA, 0.226 E-score.
Regarding CTTCTCTA, the binding signal is 0.0574 E-score.
Under GTTAGCCA stands -0.0296 E-score; under AAGGAGCG, -0.3 E-score.
AGTTTATG returned a binding signal of 0.166 E-score.
CAGGCAGA: the binding signal is -0.327 E-score.
Under ACTTCCTA stands 0.107 E-score; under AGTCTTGC, -0.0663 E-score; under AAGGCTCG, -0.304 E-score.
ACTGGCTC returned a binding signal of -0.238 E-score.
As to CGAACTGA, the binding signal was -0.0407 E-score.
As for AGCTCACT, the figure is -0.0182 E-score; as for ATGTATGC, 0.167 E-score.
As for CGCTGCGA, the figure is -0.0364 E-score; as for GCAGATCC, 0.0551 E-score.
As for GTTTTATA, the figure is 0.141 E-score; as for AACCTTGC, -0.0541 E-score; as for CTATTTCA, 0.0893 E-score.
Sequence GACTGCCC registered a binding signal of -0.296 E-score.
As for AATTTATA, the figure is 0.435 E-score.
Under AAGACCCG stands -0.173 E-score; under CACGCAGG, -0.258 E-score; under ATATGCGA, 0.107 E-score.
Consider AGGGAGAG, for which the binding signal was -0.325 E-score.
In turn, CATTTTTA registered a binding signal of 0.153 E-score.
With AACGACCG, the binding signal was -0.0771 E-score.
For CTAGCTGC, the binding signal turned out to be 0.0309 E-score.
Consider ACCTACAA, for which the binding signal turned out to be 0.265 E-score.
Take AATGGAGC: the binding signal is -0.103 E-score.
In turn, GCTCCACA yielded a binding signal of 0.0705 E-score.
Consider AACACGTG, for which the binding signal was -0.0472 E-score.
With AACGACCT, the binding signal was -0.109 E-score.
Under CGTCATGC stands -0.129 E-score; under AGTGTTGA, 0.0228 E-score.
As for GCGGGACA, the figure is -0.302 E-score; as for GCATAGTA, 0.187 E-score; as for CTAGGCAG, 0.039 E-score.
AGATATAT yielded a binding signal of 0.395 E-score.
Under AGGTTGGG stands -0.132 E-score.
AGTCTGTG displayed a binding signal of -0.0376 E-score.
In turn, AACTGGCT yielded a binding signal of -0.103 E-score.
Under AGAGTCTC stands 0.0335 E-score; under CCTTTAAC, -0.0145 E-score.
On to AATGACAA, for which the binding signal came to 0.16 E-score.
Under CACTTCCG stands 0.0662 E-score; under CGGTCGAG, -0.153 E-score; under GTCCACCA, -0.277 E-score.
As for GGATTTAA, the figure is -0.0241 E-score; as for GCGTTAGC, -0.153 E-score.
Under CAACGCCG stands -0.253 E-score; under CGCCACAC, -0.0219 E-score; under GACGTGAC, -0.177 E-score.
In turn, TCCATTAA showed a binding signal of 0.0273 E-score.
Sequence GTGGTTAA returned a binding signal of -0.158 E-score.
For CCTCTGTA, the binding signal was -0.0677 E-score.
With AAGCGAGC, the binding signal is -0.156 E-score.
On to ACGCAAAA, for which the binding signal was 0.129 E-score.
Under ATTAGTCC stands 0.0275 E-score; under GACCTCGC, -0.236 E-score; under TGAACCCA, -0.0568 E-score.
As for ATAACGAT, the figure is 0.229 E-score; as for GGCTTGAC, -0.347 E-score; as for ATGACATA, 0.0478 E-score.
